± gives the standard deviation. Over roughly 5,500 sequences, “pre-steady-state target cleavage rate” has its median near 0.1; the highest 2% begin near 0.64. Only a part is listed here, and it is no random draw.
test system: MIWI (PIWIL1) piRISC loaded with piRNA #2 (30 nt); test: pre-steady-state target cleavage rate (min^-1); MIWI and MILI are mouse PIWI proteins and EfPiwi is from a freshwater sponge; tags in brackets are library labels; higher = faster piRNA-guided slicing of the target; settings: guide: piRNA #2 5'p-UUAGGUAACCCAGUAGAUCCAGAGGAAUUC; auxiliary factor: 500 nM mouse GTSF1
Method in brief: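 A transcribed, DNA-blocked target RNA library […] was incubated at 33 °C for 0–8 or 0–960 min with 1 nM active affinity-purified piRISC carrying one synthetic guide, in HEPES–potassium acetate buffer with or without 500 nM GTSF1 partner protein. Uncleaved targets were then sequenced and normalised to depth and to weakly complementary targets. Data from three trials were pooled, with k3 capped at 0.0001 min^-1, and a burst-and-steady-state fit yielded the pre-steady-state cleavage rate.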

| Sequence | pre-steady-state target cleavage rate |
| --- | --- |
| CAAUUCGUCUGGAUCUACUGGGUUAGCUAA | 0.192 ± 0.051 |
| CUAUUCCUACUGGAUCUACUGGGUUACCUAA | 0.544 ± 0.065 |
| CUUAUCCUCUCGAUCUACUGGGAUACCUAA | 0.408 ± 0.032 |
| CUUUUCCUCUGCAUCUACUGGGUUAGCUAA | 0.202 ± 0.022 |
| CAAUAGCUCUGGAUCUACUGGGUUACCUAA | 0.144 ± 0.034 |
| CUUAAGCUGUGGAUCUACUGGGUUACCUUA | 0.144 ± 0.03 |
| CUUAAGGUCUGGAUCUACUCCGUUACCUAA | 0.01 ± 0.0088 |
| CUAAUCCUCUGGAUCUACAGGGUUACCUAA | 0.285 ± 0.025 |
| CUUAAGGAGACCUAGAACUGGGUUACCAUA | < 0.0001 |
| GAAUUGCUCUGCAUCUACUGGGUUACCUAA | 0.135 ± 0.046 |
| CUUAAGCUCAGGAACUACUGGGUUACCUAA | 0.284 ± 0.024 |
| CUUAAGGACUGGAUCAACUGCGUUACCUAA | 0.0365 ± 0.033 |
| CUUUUCCUCUGGAUCUACUCGGUUACCAAA | 0.063 ± 0.016 |
| CUUAAGGAGUGGAUCUACUGGGUUACCUGAA | 0.0357 ± 0.012 |
| CUUUUCCUCUGGAUCUACUGGGUCACCUAA | 0.23 ± 0.041 |
| CUUAAGGAGAGGACCUACUGGGUUACCUAA | 0.0487 ± 0.011 |
| CUAUUCCACUGGAUCUACUGGCUUACCUAA | 0.0721 ± 0.015 |
| CUUAUCCACUGGAUCUACUGGGUUACGUAA | 0.458 ± 0.057 |
| GAAUUCCUCUGGAUCUACUGGGUUACCUAAA | 0.272 ± 0.043 |
| GAAUUCGUCUGGUUCUACUGGGUUACCUAA | 0.549 ± 0.062 |
| CUUAAGCUCUGGAUCUACUGGGUUAGCAAA | 0.0893 ± 0.019 |
| GAAUACCUCUGGAACUACUGGGUUACCUAA | 0.235 ± 0.042 |
| CAAUUGCUCUGGAUCUACUGGGUUAGCUAA | 0.346 ± 0.07 |
| CUAUUCCUCUGGAUCUACUGGGUCACCUAA | 0.216 ± 0.045 |

| Sequence | pre-steady-state target cleavage rate |
| --- | --- |
| CUUAUCCUCUGGAUCUACUGGCUUACCUAA | 0.114 ± 0.019 |
| CUUAAGGAGAGGAUCAACUGGGUUACCUAA | 0.00378 ± 0.0032 |
| CUUAAGCACUGGAUCUACUGGGUAACCUAA | 0.102 ± 0.015 |
| CAAUUCCUCUGGAUGUACUGGGUUACCUUA | 0.505 ± 0.05 |
| CUUUUCCUCUGGUUCUACUGGGUUUCCUAA | 0.522 ± 0.19 |
| GAUUUCCUGUGGAUCUACUGGGUUACCUAA | 0.292 ± 0.054 |
| CUUAACCUCUGGAUCUACUGGGUAACCUAA | 0.101 ± 0.019 |
| CUAAUCCUCUGGAUCUACUGGGUAACCUAA | 0.225 ± 0.041 |
| CUUUUCCUCUGGAUCUACUGGGUUACCUCA | 0.266 ± 0.037 |
| CUUAAGCUCUCGGAUCUACUGGGUUACCUAA | 0.231 ± 0.021 |
| CUUUUCCUCUGGAUCUAGUGGGUUAGCUAA | 0.0499 ± 0.011 |
| CUUAAGCUCUGGAUCUACUGCGUUAGCUAA | 0.0125 ± 0.0073 |
| CUUAAGGAGACGAUCUACUGAGUUACCUAA | 0.0052 ± 0.002 |
| CUUAAGCUCUGGAUCUACUGGGUUACCUAC [g2:g24:cont:t1C] | 0.0862 ± 0.012 |
| CUUAAGCUCUGGAUCUUCAGGGUUACCUAA | 0.0391 ± 0.0084 |
| CUUAAGGUCUGGAUCUACUGGGUUACCUAAA | 0.208 ± 0.033 |
| CAAUUCCUCUGGAUCUACUGCCAUACCUAA | 0.00494 ± 0.0031 |
| CUUAACCUCUGGAUCUAGUGGGUUACCUAA | 0.13 ± 0.012 |
| CUAUUCCUCUGCAUCUACUGGGUUACGUAA | 0.31 ± 0.037 |
| CUUAAGGAGUGGUUCUACUGCGUUACCUAA | 0.0144 ± 0.0057 |
| CUAUUCCUCUCGAUCUACUGGCUUACCUAA | 0.181 ± 0.015 |
| CUAUUCCUCAGCAUCUACUGGGUUACCUAA | 0.409 ± 0.036 |
| CUUAAGGACUGGAUCAACUGGGUUACCUAA | 0.103 ± 0.053 |
| CUUAAGGUCUGGAUCAACUGGGUAACCUAA | 0.0235 ± 0.018 |

| Sequence | pre-steady-state target cleavage rate |
| --- | --- |
| CUUAAGGUCAGGAACUACUGGGUUACCUAA | 0.0207 ± 0.008 |
| CUUUUCCUCUGGAUCUACUGGGUUACUAA | 0.215 ± 0.044 |
| GAAUUCCUCUGGAACUACUCGGUUACCUAA | 0.146 ± 0.027 |
| CUUAACCUCUGGAUCUACCGGGUUACCUAA | 0.0969 ± 0.0077 |
| CUUAAGGUCUCGAUCUACUGCGUUACCUAA | 0.128 ± 0.021 |
| CUUUUCGUCUCGAUCUACUGGGUUACCUAA | 0.446 ± 0.046 |
| CUUAACCUCUGGUACUACUGGGUUACCUAA | 0.421 ± 0.041 |
| CUUAUCGUCUGCAUCUACUGGGUUACCUAA | 0.368 ± 0.045 |
| CUAUUUCUCUGGAUCUACUGGGUUACCUAA | 0.242 ± 0.041 |
| CUUAAGGACUGGAUCAACUGGGUUACGUAA | 0.3 ± 0.077 |
| CUUUUCGUCAGGAUCUACUGGGUUACCUAA | 0.299 ± 0.05 |
| CAAUUCCUCUGGAUCUACUGGGAUACCUAA | 0.397 ± 0.047 |
| CAAUACCUCUGGAUCUACUGGGUUACGUAA | 0.567 ± 0.059 |
| CUUAAGCUCUGGAUGUACUGGGUAACCUAA | 0.0678 ± 0.013 |
| CAAUUCCUCUGGAUAUACUGGGUUACCUAA | 0.724 ± 0.043 |
| CUUAUCCUCUGGAUCCUACUGGGUUACCUAA | 0.171 ± 0.032 |
| GAAUUGCUCUGGAUGUACUGGGUUACCUAA | 0.121 ± 0.03 |
| CAAUUCCUCGGGAUCUACUGGGUUACCUAA | 0.453 ± 0.086 |
| CUUAUCCGCUGGAUCUACUGGGUUACCUAA | 0.48 ± 0.048 |
| GUAUUCCUCUGGAUCUACUGGGUUAGCUAA | 0.474 ± 0.08 |
| CUUAAGCUCUGGAUCUAGUGCGUUACCUAA | 0.0254 ± 0.007 |
| CAAUUCCUCUGGAUCUUCUGCGUUACCUAA | 0.331 ± 0.047 |
| CUUUUGGUCUGGAUCUACUGGGUUACCUAA | 0.319 ± 0.03 |
| GUAUUCCUCUGGAUCUACAGGGUUACCUAA | 0.064 ± 0.014 |
